Test results: PubChem BioAssay AID504832 (National Center for Advancing Translational Sciences (NCATS), 2011)
About 18,000 (5.8%) of roughly 310,000 compounds were called active. The inconclusive results got no clear call from the source; some entries with a clear call stand among them for comparison. Calls come from the whole dose curve; as a rule, active = well fitted inhibition curve with a large enough effect; inconclusive = small, poorly fitted or top-dose-only effect, or another doubt; inactive = no such curve, though single readings can be large or run the other way. Potencies of inconclusive entries are left out as doubtful fits.

test: Primary qHTS for delayed death inhibitors of the malarial parasite plastid, 48 hour incubation; conditions: P. falciparum luciferase growth in erythrocytes; series mostly up to 28.7 µM; activity change, negative = inhibition: at the top concentration
Outline: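 First compound was added to culture medium, then infected red cells at 0.1% parasitemia and 2% hematocrit (final). After incubation at 37 C under 5% CO2, luciferase detection reagent was dispensed and light output recorded.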
% is set by controls: 0 for no effect and ±100 for the full control effect; potency is the fitted concentration of half-maximal effect; tags give direction and shape of the fitted curve.

SMILES | Potency | activity change, negative = inhibition
O=S(=O)(c1ccccc1)N1CCN(C(=S)NCCc2ccccc2)CC1 | inconclusive [inhibitor, single point] | 
Clc1ccccc1CN1CCN(c2ncccn2)CC1 |  | inactive: -3.59%
COc1ccc(C(c2nnnn2C2CCCC2)N2CCc3ccccc3C2)cc1OC (configuration not stated) | active: 3.7 µM | 
COC(=O)c1ccccc1NC(=O)C1COc2ccccc2O1 (configuration not stated) |  | inactive: -15.9%
Cc1ccc(C)c(S(=O)(=O)N2CCN(C(C)C(=O)Nc3ccccc3-c3ccccc3)CC2)c1 (configuration not stated) | active: 9.28 µM | 
CSc1ncccc1C(=O)Nc1cccc(S(=O)(=O)N(C)c2ccccc2)c1 | active: 9.28 µM | 
O=C(CN1CCN(C(=O)c2ccc(-c3nc4ccccc4s3)o2)CC1)Nc1ccc(F)cc1 | active: 11.7 µM | 
CCOc1ccc(N(CC(=O)NCc2ccccc2Cl)S(=O)(=O)c2c(C)[nH]c(=O)[nH]c2=O)cc1 |  | inactive: -1.35%
O=S(=O)(c1ccc(F)c(F)c1)N1CCN(S(=O)(=O)c2cccs2)CC1 |  | inactive: 120%
COc1ccc(NC(=O)CN2CCC(C)CC2)cc1 |  | inactive: 30.7%
CC1CCCC(C)N1C(=O)CSc1nc2ccccc2c(=O)[nH]1 (configuration not stated) | inconclusive [inhibitor, single point] | 
COc1cccc(NC(=O)Cn2cc(C(=O)C3CC3)c3ccccc32)c1 | inconclusive [inhibitor, single point] | 
Cc1ccccc1OCCCCCn1ccnc1 | inconclusive [inhibitor, single point] | 
CC#CC[N+](C)(C)CCCCCCCCCC | active: 0.738 µM | 
CC(=O)N1C2CCCCC2S[C@H]2CCCCC21 (some centres not stated) |  | inactive: -9.95%
Cc1nc2ccc3nc(NC(=O)c4ccc(S(=O)(=O)N5CCOCC5)cc4)sc3c2s1 |  | inactive: 1.52%
CCOC(=O)CCc1c(C)c2ccc(OCC(=O)N3CCOCC3)c(C)c2oc1=O | inconclusive [inhibitor, partial curve] | 
Cc1cc(OC(C)C(=O)N2CCN(c3ccccc3)CC2)c2c(C)c(C)c(=O)oc2c1 (configuration not stated) | active: 9.28 µM | 
CC(C)Cn1c(N)c(C(=O)COC(=O)c2cc(-c3ccco3)nc3ccccc23)c(=O)n(C)c1=O | active: 9.28 µM | 
CCN(CC)c1nc2n(c(=O)n1)CCO2 |  | inactive: 19.5%
Cc1cccc(N(C)S(=O)(=O)c2ccc3c(c2)C(C)(C)C(=O)N3C)c1 | inconclusive [inhibitor, partial curve, poor fit] | 
COc1ccccc1-n1nnnc1SCC(=O)Nc1ccc(C)c(N)c1 | inconclusive [inhibitor, single point] | 
CC1(C)CCCN(Cc2c(O)ccc3c(=O)c(-c4nc5ccccc5s4)c(N)oc23)C1 | inconclusive [inhibitor, full curve] | 
CCOc1ccc(CSC2=NCCN2)cc1[N+](=O)[O-] | inconclusive [inhibitor, single point] | 

SMILES | Potency | activity change, negative = inhibition
O=C(O)Cn1c2ccccc2c2ccccc21 |  | inactive: 1.46%
COc1ccc(NC(=O)CSCC(=O)N(C)Cc2c(F)cccc2Cl)cc1 | inconclusive [inhibitor, single point] | 
CCOC(=O)[C@H]1[C@H]2COc3ccc(OC)cc3[C@@H]2N2C(=O)CN(C)C(=O)[C@@]12C |  | inactive: 21.4%
COC(=O)c1ccccc1NC(=O)c1c(O)c2c([nH]c1=O)CCCC2 |  | inactive: 29.3%
Cc1cc(OC(=O)N(C)C)nc(-c2ccc(C)c(Cl)c2)n1 | inconclusive [inhibitor, single point] | 
CC(C)(C)c1ccc(OCC(O)CN(CCO)CC(O)Cn2ccc3ccccc32)cc1 (configuration not stated) | active: 11.7 µM | 
COc1ccc(OC)c2c(C)cc(NCCN3CCOCC3)nc12 |  | inactive: -17%
Cc1ccc(NC(=Nc2ccc(Br)cc2)N2CCOCC2)cc1C | inconclusive [inhibitor, partial curve, poor fit] | 
CCOC(=O)/C=C/C(=O)Nc1ccc(Oc2ccccc2)cc1 |  | inactive: -0.0315%
O=C(CSc1nc(C2CC2)nc2ccccc12)N1c2ccccc2Sc2ccc(C(F)(F)F)cc21 | inconclusive [inhibitor, single point] | 
COc1ccc(OC)c(CCNC(=O)c2ccc3c(=O)[nH]c4c(C(=O)NC(C)C)sc(=S)n4c3c2)c1 | inconclusive [inhibitor, full curve] | 
COC(=O)Cc1c[nH]c2ccc(OCC(O)CNC(C)C)cc12 (configuration not stated) |  | inactive: 4.73%
COC(=O)CCC(=O)COc1ccccc1C#N |  | inactive: 104%
Cn1c2c(c(=O)n(C)c1=O)C(C(F)(F)F)(C(F)(F)F)N=C(c1ccccc1Cl)N2 |  | inactive: -15.4%
CCOc1ccc(N=C2NC(=O)C(CC(=O)O)S2)cc1 (configuration not stated) |  | inactive: 19%
COc1ccc(CN(C)C(=O)c2cccc(S(=O)(=O)N3CCN(c4ccccc4)CC3)c2)c(OC)c1OC | inconclusive [inhibitor, partial curve, poor fit] | 
CC(C)C[C@H](NC(=O)c1[nH]cnc1C(=O)N[C@@H](C)C(=O)OC(C)(C)C)C(=O)OCc1ccccc1 | inconclusive [inhibitor, single point] | 
CC(/C=C/c1ccccc1F)=N\NC(=O)c1cccc(F)c1 |  | inactive: 2.36%
CC(c1ccccc1)N1CC(C(=O)N2CCN(c3ccc(F)cc3)CC2)CC1=O (configuration not stated) |  | inactive: -12.6%
O=C(CCc1nnc(-c2ccccc2)o1)c1ccc(Cl)cc1 |  | inactive: 39.2%
CC(C)(C)c1cc(C2=CSC3=NCCN23)cc(C(C)(C)C)c1O | inconclusive [inhibitor, full curve] | 
O=c1[nH]c2ccccc2nc1/C=C/c1ccc(Cl)cc1 |  | inactive: 239%
CCc1cc2c(nc1CC)CCN(CC/C(C)=N/OC[C@H]1O[C@H](c3ccccc3)C=C[C@@H]1Oc1ccc(OC)cc1)C2 | inconclusive [inhibitor, full curve, poor fit] | 
O=c1nc(-c2ccccc2)cc(C(F)(F)F)[nH]1 | inconclusive [inhibitor, full curve, poor fit] | 

SMILES | Potency | activity change, negative = inhibition
COc1ccccc1C(=O)NCC(=O)NCCC(c1ccccc1)c1ccccc1 | inconclusive [inhibitor, single point] | 
O=C(CNc1cccc(S(=O)(=O)N2CCCC2)c1)Nc1ccc(C(F)(F)F)cc1 | active: 4.15 µM | 
Cc1ccc(S(=O)(=O)N2CCC(=O)N(C(COCc3ccc(Cl)cc3Cl)Cc3ccccc3)CC2)cc1 (configuration not stated) | inconclusive [inhibitor, partial curve, poor fit] | 
Cc1cc(C)nc(SCCCNCc2ccccc2)n1 | inconclusive [inhibitor, full curve, poor fit] | 
O=C(Nc1ccc(OCc2ccccc2)cc1)c1cccs1 |  | inactive: 75.8%
CCOC(=O)C1=CC[C@@H](c2ccco2)N(S(=O)(=O)c2ccc(C)cc2)[C@H]1C(=O)OCC | inconclusive [inhibitor, single point] | 
C=CCN1CCN(C(c2ccc(OC)c(OC)c2)c2nnnn2C(C)(C)C)CC1 (configuration not stated) | inconclusive [inhibitor, single point] | 
CCCNC(=O)N1CCC(C(=O)c2ccc(Cl)cc2)CC1 | inconclusive [inhibitor, full curve, poor fit] | 
CC(=O)Nc1ccc(/C=N/NC(=O)CNS(=O)(=O)c2ccccc2)cc1 | inconclusive [inhibitor, partial curve, poor fit] | 
COC(=O)C1=C(c2ccc(F)cc2F)C[C@@H]2CC[C@H]1N2C(=O)NCCOc1ccccc1 | inconclusive [inhibitor, partial curve] | 
Cc1nc2ccccn2c1-c1ccnn1S(=O)(=O)c1ccc(F)cc1 | inconclusive [inhibitor, single point] | 
N#Cc1cnc(Sc2ccccc2)nc1 | inconclusive [inhibitor, single point] | 
Cc1cc(/C=C2/NC(=O)N(Cc3ccccc3F)C2=O)c(C)n1-c1ccccn1 | active: 9.28 µM | 
CSc1ccccc1NC(=O)c1cc(-c2cccnc2)nc2ccc(Br)cc12 | inconclusive [inhibitor, full curve, poor fit] | 
CN(C)CCCN(Cc1ccccc1)C(=S)Nc1ccc(F)c(Cl)c1 | inconclusive [inhibitor, partial curve, poor fit] | 
Cc1cc(C)c(OCCNC(=O)c2ccccc2Sc2ccccc2C#N)c(C)c1 |  | inactive: -22.5%
O=C(CNC(=O)C12CC3CC(CC(C3)C1)C2)N1CCN(S(=O)(=O)/C=C/c2ccccc2)CC1 | inconclusive [inhibitor, partial curve] | 
O=C(NCCCN1CCOCC1)c1cccc(S(=O)(=O)Nc2cc(Cl)ccc2Cl)c1 |  | inactive: 56.5%
CN(CC(=O)Nc1cccc(F)c1)C(=O)/C=C/c1cn(Cc2ccccc2)nc1-c1cccnc1 | inconclusive [inhibitor, partial curve, poor fit] | 
CCOCCCN(C(=O)Cn1nnc(-c2ccc(C)o2)n1)C(C(=O)NC1CCCC1)c1ccco1 (configuration not stated) | inconclusive [inhibitor, partial curve, poor fit] | 
CC1CC1C(=O)OCC(=O)Nc1cccc([N+](=O)[O-])c1 (configuration not stated) | inconclusive [inhibitor, single point] | 
O=C(Cn1ncc2c(=O)oc3ccccc3c21)NC1CC1 |  | inactive: 9.63%
Cc1ccc(-c2nnn(CC(=O)N(CC(=O)NC3CCCCC3)c3cccc(F)c3)n2)o1 | inconclusive [inhibitor, partial curve, poor fit] | 
CCN(CC)c1cc(C)c2cc(NC(=O)c3ccccc3OC)ccc2n1 | inconclusive [inhibitor, partial curve] | 
